About 5,700 (2.6%) of roughly 220,000 compounds were called active. This list was built around the results that the source calls inconclusive (neither active nor inactive); the mix of calls is not that of the screen. Calls follow the shape of the dose curve; as a rule, active = well fitted inhibition curve with a large enough effect; inconclusive = small, poorly fitted or top-dose-only effect; inactive = no such curve, though single readings can be large or run the other way. Where the call is inconclusive, the potency comes from a doubtful curve fit.
biological target: Lysine-specific demethylase 5B (Homo sapiens) (UniProt Q9UGL1); assay: Primary screen for KDM5B Histone Demethylases FDH-coupled qHTS; settings: FDH-coupled NADH fluorescence (FDH is formaldehyde dehydrogenase); activity change, negative = inhibition: at 57.7 µM (top of the series) unless noted; also: nearly all actives have a fitted effect of over 70% in size; as to activity change, negative = inhibition: 0% is about no effect
In short: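 Measured: NADH fluorescence change, 30 min, RT. System: KDM5BΔAP 200 nM final, H3K4me3 peptide, α-KG, Fe(II), ascorbate, NAD⁺ plus FDH, pH 7.5 HEPES. Compounds: titrated, 10 min pre-incubation with enzyme.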
Potency is read from the fitted curve at half-maximal effect; tags tell the direction and shape of the fitted curve.

UniProt Q9UGL1, sequence (Q9UGL1 whole entry, looked up): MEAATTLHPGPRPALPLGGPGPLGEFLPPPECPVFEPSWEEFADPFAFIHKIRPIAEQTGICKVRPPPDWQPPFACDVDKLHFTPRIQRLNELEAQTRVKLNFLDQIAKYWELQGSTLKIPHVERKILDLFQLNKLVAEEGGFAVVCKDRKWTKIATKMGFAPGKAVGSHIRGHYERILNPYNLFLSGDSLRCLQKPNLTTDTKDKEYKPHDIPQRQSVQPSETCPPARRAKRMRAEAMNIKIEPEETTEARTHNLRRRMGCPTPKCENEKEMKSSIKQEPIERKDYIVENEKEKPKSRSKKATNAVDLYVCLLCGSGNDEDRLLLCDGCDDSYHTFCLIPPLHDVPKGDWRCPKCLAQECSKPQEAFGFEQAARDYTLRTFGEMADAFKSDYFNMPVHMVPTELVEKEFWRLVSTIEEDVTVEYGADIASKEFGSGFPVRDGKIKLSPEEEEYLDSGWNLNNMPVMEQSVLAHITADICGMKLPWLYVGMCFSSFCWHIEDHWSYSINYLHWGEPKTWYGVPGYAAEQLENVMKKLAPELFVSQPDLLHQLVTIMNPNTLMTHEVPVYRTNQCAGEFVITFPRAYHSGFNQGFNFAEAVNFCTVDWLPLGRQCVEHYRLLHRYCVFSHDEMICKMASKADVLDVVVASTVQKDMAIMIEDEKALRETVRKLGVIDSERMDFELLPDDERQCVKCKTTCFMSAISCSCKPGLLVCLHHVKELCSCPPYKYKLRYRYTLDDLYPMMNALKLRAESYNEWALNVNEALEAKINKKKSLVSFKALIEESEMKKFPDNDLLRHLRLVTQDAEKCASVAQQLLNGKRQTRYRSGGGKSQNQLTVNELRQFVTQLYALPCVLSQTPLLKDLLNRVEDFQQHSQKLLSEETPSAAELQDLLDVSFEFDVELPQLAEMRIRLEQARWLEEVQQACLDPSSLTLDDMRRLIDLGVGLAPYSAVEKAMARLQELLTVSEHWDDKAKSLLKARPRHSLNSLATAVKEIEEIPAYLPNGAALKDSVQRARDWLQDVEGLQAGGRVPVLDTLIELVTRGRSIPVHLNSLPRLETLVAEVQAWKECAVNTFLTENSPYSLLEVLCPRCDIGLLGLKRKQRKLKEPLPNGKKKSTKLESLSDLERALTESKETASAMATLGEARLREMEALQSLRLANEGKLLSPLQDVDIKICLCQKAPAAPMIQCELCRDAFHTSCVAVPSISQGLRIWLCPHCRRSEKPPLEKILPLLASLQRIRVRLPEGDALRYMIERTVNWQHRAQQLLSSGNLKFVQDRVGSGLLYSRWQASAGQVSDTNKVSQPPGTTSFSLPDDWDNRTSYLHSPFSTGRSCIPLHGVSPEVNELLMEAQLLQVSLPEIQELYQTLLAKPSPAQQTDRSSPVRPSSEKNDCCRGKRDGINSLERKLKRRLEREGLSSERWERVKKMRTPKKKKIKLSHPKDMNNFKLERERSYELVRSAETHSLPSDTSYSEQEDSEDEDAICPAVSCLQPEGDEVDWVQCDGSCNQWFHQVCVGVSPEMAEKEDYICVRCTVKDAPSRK

Structure (SMILES)	activity change, negative = inhibition	Potency
CN1CCN(CCNC(=O)CC2CCN(C(=O)c3cc4ccccc4[nH]3)CC2)CC1	inactive: -2.64%	
CN1CC(=O)N(C2CCCNCC2)Cc2c1ncnc2N1CCC(N2CCCCC2)CC1 (centres undefined)		inconclusive: 44.7 µM [inhibitor, partial curve]
COc1ccc2c(c1OC)C(=O)N1C2SC[C@H]1C(=O)NCCC(C)C (some centres undefined)		inconclusive: 39.8 µM [inhibitor, single point]
Cc1ccccc1OCCSC(C)C(=O)NC(C)(C)C (centres undefined)	inactive: -19.8%	
O=C(NC[C@H]1O[C@@H](CO)[C@@H](O)[C@H]1N1CCN(c2ccccc2)CC1)Nc1ccc(F)cc1F		inconclusive: 17.8 µM [inhibitor, single point]
COc1cccc(CNC(=O)Nc2ncc(-c3ccccc3)n2C)c1	inactive: -25.4%	
CCN(CC)CCN(C(=O)c1ccco1)c1nc2cc(C)cc(C)c2s1		inconclusive: 0.794 µM [inhibitor, partial curve, poor fit]
CCOc1cc(-c2ccc(OC(=O)c3ccc(C)cc3)c(OC)c2)cc(=O)c2c(C)oc(C)c12		inconclusive: 1.41 µM [inhibitor, full curve, poor fit]
O=C(c1ccncc1)N1CC[C@](O)(c2ccccc2)[C@H](N2CCCC2)C1		inconclusive: 15.8 µM [inhibitor, single point]
CCCN(CCC)S(=O)(=O)c1ccc(C(=O)Nc2cccc(-c3nc4ccccc4[nH]3)c2)cc1		inconclusive: 7.08 µM [inhibitor, partial curve, poor fit]
CC(C)NC(=O)CN(C)CC(O)COc1ccc(Cl)cc1 (centres undefined)	inactive: -11.6%	
COc1ccccc1CCNC(=O)Cc1c(C)c2cc3c(C)coc3cc2oc1=O		inconclusive: 2.82 µM [inhibitor, full curve, poor fit]
O=C(c1cc2ccccc2oc1=O)N1CCN(c2ccc(F)cc2)CC1		inconclusive: 15.8 µM [inhibitor, partial curve, poor fit]
CCc1ccc(-n2nc(CO)c(C(=O)NCc3ccc4c(c3)OCO4)n2)cc1	inactive: 5.63%	
CN(C)C[C@@H]1CN(Cc2ccncc2)C[C@H]1NC(=O)c1ccoc1		inconclusive: 28.2 µM [inhibitor, partial curve, poor fit]
O=C(Nc1ccc(S(=O)(=O)N2CCC(Cc3ccccc3)CC2)cc1)C1=COCCO1	inactive: -23.6%	
COCc1noc(Cn2ncc(N(C)CCc3ccccc3)cc2=O)n1		inconclusive: 17.8 µM [inhibitor, partial curve]
Cc1cc2nc3n(c(=O)c2n1CC(=O)NC1CCCCC1)CCCCC3		inconclusive: 31.6 µM [inhibitor, single point]
COc1ccccc1CNC(=O)C1CC(=O)N(c2n[nH]c3cccc(F)c23)C1 (centres undefined)		inconclusive: 20 µM [inhibitor, partial curve]
Cc1cnc(C(=O)OCC(=O)c2ccc(-c3ccccc3)cc2)cn1	inactive: 14.4%	
FC(F)(F)c1ccc(Cl)c(N/N=C/c2ccc(Cl)cc2)c1		inconclusive: 28.2 µM [inhibitor, partial curve, poor fit]
Fc1ccc(-n2ncc3c(NCCC4=CCCCC4)ncnc32)cc1		inconclusive: 28.2 µM [inhibitor, partial curve, poor fit]

Structure (SMILES)	activity change, negative = inhibition	Potency
COc1ccc(C(=O)Nc2cc(S(=O)(=O)c3ccc(Cl)cc3)c(O)c(C)c2C)cc1		inconclusive: 15.8 µM [inhibitor, partial curve, poor fit]
N#Cc1nc(-c2ccc(S(=O)(=O)N3CCOCC3)cc2)oc1NCCc1ccccc1	inactive: -93.4%	
COc1ccc(Nc2nc(-c3ccc(CN(C)C(C)=O)cc3)cs2)cc1	inactive: -10.9%	
O=C(CCN1CCN(c2ccccn2)CC1)Nc1ccc(F)c(F)c1	inactive: 6.37%	
CN1CCN([C@@H]2[C@H](O)[C@H](CO)O[C@@H]2CNC(=O)c2ccco2)CC1		inconclusive: 20 µM [inhibitor, partial curve, poor fit]
CCCn1ncc(CN2CCCC23CCN(c2ncccn2)CC3)c1C		inconclusive: 17.8 µM [inhibitor, partial curve, poor fit]
CCOc1cc(C(=O)Nc2ccc(-c3nc4ccccc4s3)cc2Cl)cc(OCC)c1OCC		inconclusive: 15.8 µM [inhibitor, partial curve, poor fit]
CC(=O)c1c(C)[nH]c(C(=O)c2oc3ccc(Br)cc3c2C)c1C	inactive: -2.75%	
O=C(CC1CCN(C(=O)C2CCC2)C1)NCc1ccccc1 (centres undefined)	inactive: -11.9%	
C=CCCC(CN1CCCC1)Oc1cncc(C(=O)N2CCCC2)n1 (centres undefined)		active: 8.91 µM
O=C1[C@H]2CN(Cc3ccc(F)cc3)C[C@H]2C(=O)N1CCN1CCc2ccccc2C1		inconclusive: 39.8 µM [inhibitor, partial curve, poor fit]
O=C1c2c(nc(CNCc3ccc4c(c3)OCO4)n2Cc2ccccc2)NCCN1Cc1ccccc1F		inconclusive: 39.8 µM [inhibitor, single point]
COc1ccc(-c2cc(N3CCC(NC(=O)CCc4cccc(OC)c4)CC3)n[nH]2)cc1	inactive: -30.9%	
O=C(Nc1ccsc1)N[C@H]1C[C@H]2C(=O)NC[C@@H](CCC(=O)N3CCOCC3)N2C1		inconclusive: 28.2 µM [inhibitor, partial curve, poor fit]
CN1C(=O)CN(Cc2ccccc2C#N)C(=O)c2ccccc21		inconclusive: 22.4 µM [inhibitor, single point]
COc1ccc(-c2cc3nc4c(c(=O)n3[nH]2)CN(C(=O)c2sccc2C)CC4)cc1		inconclusive: 10 µM [inhibitor, partial curve, poor fit]
CN(CC(=O)Nc1cccc(F)c1)C(=O)c1ccc(OCc2cn3ccccc3n2)cc1	inconclusive: -30.7% [inhibitor]	
CCOc1ccc(S(=O)(=O)n2nc(C)c(S(=O)(=O)N3CCCCC3)c2C)cc1		inconclusive: 39.8 µM [inhibitor, single point]
Cc1ccc(-c2ccc3nnc(CNC(=O)c4cccnc4)n3n2)cc1		active: 31.6 µM
O=C(Nc1ccc(Cl)cc1C(F)(F)F)c1cc(S(=O)(=O)N2CCOCC2)ccc1F		inconclusive: 39.8 µM [inhibitor, single point]
CCCc1noc(-c2ccn3c(CNC(=O)CCC4CCCC4)nnc3c2)n1		active: 3.55 µM
COc1cc(CN2CCc3nc(N4CCN(c5ccccn5)CC4)ncc3C2)cc(OC)c1OC		inconclusive: 35.5 µM [inhibitor, single point]

Structure (SMILES)	activity change, negative = inhibition	Potency
COc1ccccc1-c1cccc(COc2ccc3c(cnn3CC[S+](C)(=O)[O-])c2)c1		inconclusive: 35.5 µM [inhibitor, partial curve, poor fit]
Cc1ccc(-c2nnc([C@H]3CCN(Cc4ccc(CO)o4)C3)o2)cc1		inconclusive: 31.6 µM [inhibitor, single point]
COC(=O)c1ccc2c(c1)NC(=O)C(N(CC(C)C)CC(C)C)S2 (centres undefined)	inactive: 18.1%	
C=Cc1ccc(Cn2c(C(=O)O)c(CNCc3ccc(F)cc3)c3ccc(C)cc32)cc1		inconclusive: 44.7 µM [inhibitor, single point]
Clc1ccccc1-c1nn2c(-c3ccc4ccccc4n3)nnc2s1		inconclusive: 22.4 µM [inhibitor, partial curve, poor fit]
O=C1NC(=NC2CCCC2)C2(CCN(Cc3ccc(F)cc3)C2)N1c1cccnc1 (centres undefined)	inactive: -7.78% [at 115 µM]	
COc1nccnc1NC1CCN(C(=O)c2ccc3[nH]ccc3c2)CC1		inconclusive: 31.6 µM [inhibitor, partial curve, poor fit]
C/[N+]([O-])=C/c1ccncc1		inconclusive: 39.8 µM [inhibitor, single point]
O=C1c2cnc(-c3ccc(O)c(F)c3)nc2OCCN1Cc1ccccc1		active: 20 µM
CCN(CC)S(=O)(=O)c1ccc2c(c1)N(CC(=O)Nc1ccccc1F)C(=O)C1CCCN21 (centres undefined)		inconclusive: 15.8 µM [inhibitor, partial curve, poor fit]
CC(C)C1Cc2c(sc3nc(SCC(=O)c4ccccc4)nc(N)c23)CO1 (centres undefined)	inactive: -5.97%	
COc1ccc(Cn2c(C(=O)O)c(CNCCc3ccco3)c3ccc(OC)cc32)cc1		inconclusive: 31.6 µM [inhibitor, partial curve, poor fit]
CCOc1ccc(CCNC(=O)c2cc3cccc4c3n2CCS4)cc1		inconclusive: 35.5 µM [inhibitor, partial curve, poor fit]
CCN1c2cc(C(=O)N3CCN(C4CCCCC4)CC3)ccc2C(=O)N2CCCCCC21 (centres undefined)		inconclusive: 22.4 µM [inhibitor, partial curve, poor fit]
CCCCC(=O)Nc1nc(-c2ccc(F)cc2NC(C)=O)cs1	inactive: 17.8%	
COc1cc(OC)cc(C(=O)/C(=C/c2ccccn2)c2nc3ccccc3o2)c1		inconclusive: 25.1 µM [inhibitor, single point]
Cc1cccc(NC(=O)c2cc(-c3ccc(C)o3)nc3ccccc23)c1		inconclusive: 39.8 µM [inhibitor, single point]
COc1ccc2ccccc2c1CCNC(=O)CC1C(=O)NCCN1C(C)C (centres undefined)		inconclusive: 31.6 µM [inhibitor, partial curve, poor fit]
Cc1cn2nc(C(=O)N3CCC(NC(=O)C4(c5ccccc5)CC4)CC3)cc2c(=O)[nH]1		inconclusive: 39.8 µM [inhibitor, partial curve, poor fit]
Brc1cccc(-c2nnn3c2nc(NCc2ccc4c(c2)OCO4)c2ccccc23)c1		inconclusive: 7.08 µM [inhibitor, partial curve, poor fit]
